About 1,700 (3.3%) of roughly 52,000 compounds were called active. Rule as the data show it: active = survival mostly below about 52% (no sharp cut-off); inactive = mostly above about 56%. The list shows a part of the results.

The experiment deals with Wild type. Kind of experiment: growth inhibition of S. aureus wild type versus tarO mutant, primary screen, teichoic acid synthesis inhibitors, RN4220, OD600 (AID 463173). As to conditions: S. aureus RN4220 wild type/DeltatarO growth, OD600, 18 h, active compounds read low, screened at 18.75 µg/mL (by protocol).
Regarding `Cc1cc(C)c2[nH]c(=O)c(CN(C3CCCCC3)C(c3nnnn3Cc3ccco3)C(C)C)cc2c1` (stereo unspecified), the survival is inactive: 107%.

Consider `CCN(C(=O)NCc1noc2ccccc12)c1cc(C)ccc1C`, for which the survival was inactive: 85%.

Turning to `CCOc1ccc(CNC(=O)CCn2cccn2)cc1OC`, the survival is inactive: 75%.

For the compound `Cc1ccc2nc(/C(C#N)=C/c3ccc(-c4cccc(Cl)c4)o3)[nH]c2c1`, the survival is inactive: 14%.

`CCOC(=O)c1nc(Nc2cccc(C)c2)c2ccccc2n1`: the survival was inactive: 83%.

For the compound `CCOc1ccc(NC(=O)CN2C(=O)C(c3ccccc3)=NC23CCCCCC3)cc1`, the survival was inactive: 123%.

As for `Cc1cccc(Cn2c(C)c(C)c3cc(C(=O)NCc4ccc(C)o4)ccc32)c1`, the survival was inactive: 93%.

With `Cc1cc(NC(=O)CN(C)S(=O)(=O)c2ccc3c(c2)CCC(=O)N3)ccc1Br`, the survival is inactive: 80%.

For `CCOc1ccc(CCNC(=O)c2cc3c(-c4cccc(OC)c4)nn(C)c3s2)cc1OCC`, the survival is inactive: 72%.

Turning to `Cc1cccc(CS(=O)(=O)Cc2ccc(C(=O)NCc3ccc(Cl)cc3)o2)c1`, the survival was inactive: 134%.

In the case of `CCCCC12CN3CC(C)(CN(C1)C3c1c(C)[nH]c(=O)[nH]c1=O)C2=O` (stereo unspecified), the survival is inactive: 85%.

On to `CCN(CCCNC(=O)c1nn(-c2ccc(OC)cc2)c(=O)c2c1c1ccccc1n2C)c1cccc(C)c1`, for which the survival is inactive: 80%.

As to `COc1ccc(-c2cccc(NS(=O)(=O)c3cc(C)c(Cl)cc3C)c2)nn1`, the survival is inactive: 124%.

As for `O=C(Sc1cccc2cccnc12)N1CCOCC1`, the survival was inactive: 126%.

Take `CCC(C(=O)NCCc1ccc(Cl)cc1)n1nc(C)c2c(C)n(-c3ccccc3)nc2c1=O` (stereo unspecified): the survival was inactive: 82%.

Consider `Cc1cccc(C(CC(=O)NCC2(c3ccccc3)CCCC2)c2ccccc2)c1O` (stereo unspecified), for which the survival was active: 2%.

Consider `Cc1nc2nc(SCC(=O)NC(C)c3ccccc3)nn2c(C)c1Cc1c(F)cccc1Cl` (stereo unspecified), for which the survival is inactive: 79%.

Turning to `COc1cccc(CSc2nc3n(n2)C(c2ccccc2C)C(C(=O)Nc2ccccc2OC)=C(C)N3)c1` (stereo unspecified), the survival was inactive: 66%.

Take `O=C(CSc1oc(-c2ccco2)nc1S(=O)(=O)c1ccc(Cl)cc1)c1ccccc1`: the survival was inactive: 150%.

For `COC(=O)c1ccc(NC(=O)CC2C(=O)N(c3cccc(OC)c3)C(=O)N2Cc2cccc(OC)c2)cc1` (stereo unspecified), the survival was inactive: 79%.

Turning to `CCOc1ccc(CN2C(=O)c3ccccc3Sc3ccc(C(=O)NCc4ccc(C)cc4)cc32)cc1`, the survival is inactive: 82%.

On to `Cc1ccc(CCNC(=O)CCSCc2ccc(Cl)cc2)cc1`, for which the survival was inactive: 72%.

For the compound `Cc1ccc(-c2nc3c4cnn(-c5cc(Cl)ccc5Cl)c4ncn3n2)cc1`, the survival is inactive: 92%.

As to `COCCCn1c(=N)c(C(=O)NC2CCCC2)cc2c(=O)n3ccccc3nc21`, the survival is inactive: 92%.

In the case of `O=C(NCc1ccccc1)c1ccccc1C(=O)c1ncc[nH]1`, the survival is inactive: 107%.

`CCC(=O)Nc1ccc2c(c1)N(C(C)=O)c1ccccc1CC2`: the survival is inactive: 96%.

On to `Cc1ccc(S(=O)(=O)c2nnn3c2nc(Nc2ccc(C(C)C)cc2)c2sccc23)cc1C`, for which the survival was inactive: 54%.

With `CCOc1ccc(-n2c(SCc3nc(-c4ccccc4C)no3)nnc2-c2ccccc2)cc1`, the survival is inactive: 84%.

`Cc1[nH]nc(CSSCc2n[nH]c(C)c2C(=O)NN)c1C(=O)NN`: the survival was inactive: 97%.

Regarding `CC(C)Cc1nn2c(=O)cc(COC(=O)c3ccccc3NC(=O)c3ccccc3)nc2s1`, the survival is inactive: 127%.

As for `CC(=O)Nc1ccc(NC(=O)CN2C(=O)CN(C)C(=O)c3ccccc32)cc1`, the survival was inactive: 68%.

For `O=C(c1cccs1)N1CCN(C/C=C/c2ccccc2)CC1`, the survival is inactive: 97%.

Turning to `CCCn1c(=O)c2sccc2n2c(CCCC(=O)NCCOC)nnc12`, the survival was inactive: 97%.

For the compound `CN(C)c1ccc(CNc2nc(-c3ccco3)nn2C(=O)c2cccc([N+](=O)[O-])c2)cc1`, the survival was inactive: 86%.

Consider `CCc1ccc(-n2c(C)nc3cc(C(=O)NCCc4ccccc4)ccc32)cc1`, for which the survival was inactive: 94%.

Turning to `CN(C)c1ccc(CN(CC2CCCO2)C(=O)COc2ccc(Cl)cc2)cc1` (stereo unspecified), the survival was inactive: 86%.

Take `CC(=O)N1CCCc2cc(S(=O)(=O)N3CCCC(C(=O)NCc4ccc(Cl)cc4)C3)ccc21` (stereo unspecified): the survival was inactive: 88%.

As to `Cc1cc(O)c(C(c2cccc(Cl)c2)N2CCN(c3ccccc3)CC2)c(=O)n1Cc1ccco1` (stereo unspecified), the survival was inactive: 73%.

On to `COc1ccccc1NC(=O)CSc1ncc2c(n1)-c1cc(Cl)ccc1N(C)S2(=O)=O`, for which the survival was inactive: 73%.

Consider `CC(C)CC(=O)Nc1ccc(C(=O)OCc2cc(=O)n3nc(C4CCCCC4)sc3n2)cc1`, for which the survival was inactive: 47%.

Consider `Cc1nc(N2CCCC2)ncc1C(=O)Nc1ccccc1`, for which the survival was inactive: 125%.

Turning to `COc1cccc(CN2C(=O)c3ccccc3C2C(=O)NCCc2ccc(OC)c(OC)c2)c1` (stereo unspecified), the survival was inactive: 68%.

`CCC1CN(C(=O)NCc2ccc(F)cc2)c2ccccc2O1` (stereo unspecified): the survival is inactive: 81%.

As for `Cc1ccc(NC(=O)c2ccco2)c(OCc2cc(=O)n3cc(C)sc3n2)c1`, the survival is inactive: 74%.

Take `COc1ccc(-n2c(=O)c3c4c(sc3n(Cc3cc(=O)n5c(C)cccc5n3)c2=O)CCC4)c(OC)c1`: the survival was inactive: 84%.

On to `COc1ccc(C2CC(=O)N3CN(C4CCCCC4)CSC3=C2C#N)cc1` (stereo unspecified), for which the survival is inactive: 138%.

On to `Cc1ccc(Cn2c(=O)c3ccccc3n3c(-c4ccccc4)nnc23)cc1`, for which the survival was inactive: 91%.

Regarding `CCc1ccc(CNC(=O)CSCc2cnn(-c3ccccc3)c2-n2cccc2)cc1`, the survival was inactive: 59%.

As for `Cc1ccc(OCC(=O)Nc2ccc3nc(SCC(=O)N4CCCC4)sc3c2)cc1C`, the survival was inactive: 85%.

With `CCOC(=O)C1=C(C)N(C)C(c2ccccc2)(C(F)(F)F)NC1=O` (stereo unspecified), the survival is inactive: 104%.

As to `COc1ccc(NC(=O)CCCS(=O)(=O)c2nc(-c3ccc(OC)c(OC)c3)cc(C(F)(F)F)n2)cc1OC`, the survival is inactive: 82%.

With `O=C(Nc1ccc2c(c1)N(C1CCCC1)C(=O)c1ccccc1S2)c1ccccc1`, the survival was inactive: 75%.

Take `N=C(N=Nc1c(O)n(Cc2ccccc2)c2ccccc12)SCC(=O)Nc1ccccc1`: the survival was inactive: 110%.

On to `Cc1ccc(Cl)cc1NC(=O)CCS(=O)(=O)c1ccc(Br)s1`, for which the survival was inactive: 78%.

As for `Cc1ccc(N2CC(C(=O)OCC(=O)C(C)(C)C)CC2=O)cc1` (stereo unspecified), the survival is inactive: 101%.

For `COc1ccc(CCNC(=O)C(=O)NCC(c2cccs2)S(=O)(=O)c2ccccc2)cc1` (stereo unspecified), the survival is inactive: 152%.
